The source gives no read counts; variants with many changes may rest on few reads.

The results in this text go back to the RNAGym collection of RNA variant scans (doi:10.7554/elife.90254).

B1: LINE1-full (parent)
chain: UACGUAGGUGGUUUUCCCCUGAUAGUGCUAAGGGGGCCUGGAAGUUUGGACUGGGCAGAGCUCAACACAGCGUGGCAAAGUGGCUGUGGCUAGACUGCCUCUCUGGAUUCCUCGUCACUCAGCAGGGCAUCUCUGAGAGAAAUGCC

In this data set the parent is B1. The data set is described as follows: self-cleavage, relative activity (ratio to wild type); higher = more cleavage; in vitro, sequencing; the parent is a self-cleaving ribozyme.
Regarding A94G A107G C113A, the self-cleavage amounted to 0.

Regarding U12C A31G A42U U132C, the self-cleavage stood at 0.69. Turning to A57U U62C U73A A107G U143C, the self-cleavage was 0. The figure for U62C U96A A117G A121G is 0; for U23C G54A A69G U104G A138G it is 0.13. Turning to A22G G58U A92G A138G, the self-cleavage turned out to be 0. As for C56U A57G U109C, the self-cleavage worked out at 0.

On to U39A U62C U96C, for which the self-cleavage was 0.13. A2G A22G G72A U87C: the self-cleavage stood at 0.49. The figure for U5A U96A A140G is 0.19.

Consider A65G A69G U104C, for which the self-cleavage stood at 0. For the variant U9C U81C A117U A129C, the self-cleavage is 1.47. On to U5C G53U G86U, for which the self-cleavage was found to be 0.19. The figure for A129G A142G U143A is 1.16. The figure for A24G U62C A79U is 0.17; for U62C C71U A78G C116G it is 0.

Turning to U13C C28U C66U A121G A142G G144A, the self-cleavage was found to be 0.07. The result for A64G A67C U115C reads 0. As to A57G C76G G83A A94G A124G, the self-cleavage came out at 0.09. Regarding A57U A78G U100C A136G, the self-cleavage is 0.66. For A6G U119A A121U, the self-cleavage came out at 1.07. For the variant A64G A92G C120U, the self-cleavage came out at 0.36. Consider A2U U13C U62C, for which the self-cleavage is 0.39. In the case of U14C A30U U73A, the self-cleavage was found to be 0.94. Turning to G49A U62C U81A, the self-cleavage stood at 0.05. As for A64G A77U U100C A107G, the self-cleavage was 0.18. The result for U23C A140G A142G reads 1.63; that for A6G A94G U119A, 0.39; that for U12C C63A A78G U91C C95U U130G, 0.05.

On to C28A U73C A78G, for which the self-cleavage is 0.98.

In the case of U20A U62C A121U, the self-cleavage worked out at 0.04. U20C A79G A140G G144A: the self-cleavage is 0.85. Regarding U26C A79U G114A A124U, the self-cleavage worked out at 1.76. The result for A22U U39C U102A A136G reads 1.66.

On to A59U A79G U119A, for which the self-cleavage is 0.79. On to C71A U85C A94G, for which the self-cleavage came out at 0.02. G27A A57G U119C A129U U130C A142G: the self-cleavage turned out to be 0. A2G A30U U62C U100C A117G G139U: the self-cleavage was 0. The result for G11A U47A C56A reads 0.06; that for U26C U96A U130G, 0.14. With A2U A30U C51U U102C, the self-cleavage was 0.5. The result for U5C U14C C16G G36U A59G reads 0.35; that for A50G A59G A142G, 0. Regarding U45G U62C A64G A67U U134C, the self-cleavage worked out at 0. With U45C A59G A140G, the self-cleavage is 0.26. The result for U1C U23C A64G reads 0.48; that for U20A A57U A69G A121U, 0; that for U15C A57G A64U U108C, 0.68.

A30U C37A U52G: the self-cleavage was 2.13. For U15A U47C U134C, the self-cleavage was found to be 0. The result for U15C A42G C61U A78G reads 0.05. As to U1C U45C U104A, the self-cleavage stood at 1. The figure for U13A A42G C113U is 0.46; for G83C U109C U115C A142G it is 0.22. For the variant U5C A6G G70A, the self-cleavage came out at 0.62. As for U9C U14C A121G, the self-cleavage came out at 1.38.

For the variant U62C G126U U134C, the self-cleavage was 0.06.

For C16U U102C U119C, the self-cleavage is 0. Consider C37U A92G G114A, for which the self-cleavage was 0.02. In the case of A30G U115C U143A, the self-cleavage amounted to 2.51.

As to A31G A69G U134C A138G, the self-cleavage is 2.12.

On to U14C U112C A129C, for which the self-cleavage came to 2.54. The result for U87A U96A U109A reads 0.09; that for U26C A65U U119G U132A A140G, 0; that for U20A G36C G127U, 1.02.

For the variant U73C A121U A136G A141G, the self-cleavage was determined as 2.6.

In the case of U15C A30U U62C, the self-cleavage was 0.11. In the case of G36A C51U U100C U143C, the self-cleavage worked out at 1.46. Turning to U45C G135A A142G, the self-cleavage is 1.39. With C3U A57G A94G, the self-cleavage is 0. As to U1A A79G A136G, the self-cleavage amounted to 0.48. Consider U20C A43U A79U, for which the self-cleavage worked out at 1.86. For the variant U12C U100C A138G, the self-cleavage turned out to be 1.46.

Regarding U46C A59G U143C, the self-cleavage amounted to 0.

In the case of U14C A78G U109C A136G, the self-cleavage amounted to 0.17. U26A U47A A138U: the self-cleavage was 0.62. On to G10A A24G A59U, for which the self-cleavage was 0.45. Consider A22U A30G U87A U100C, for which the self-cleavage worked out at 0.3. The result for U9C C66U U119A A129C reads 0.06. As to U13C U87A A107U A136G, the self-cleavage is 0.56. On to C71A A77G C120A U134A, for which the self-cleavage was 0.3.

Consider A6U U29A A107G, for which the self-cleavage was determined as 0.26. Consider C37A G54U A94G U109C, for which the self-cleavage amounted to 0.03. For U85A U96C A142G, the self-cleavage worked out at 0.14. C16U A31U A124U: the self-cleavage was 1. The result for U20A A67G G75A reads 0.54; that for U9A A50U G53A C71U U108C, 0.17. For the variant A2G U26C A64U, the self-cleavage worked out at 0.36.

U15C A67G U87C: the self-cleavage is 1.31. The figure for U47A U91A U102A U115A A140G is 0.56; for U20A A77G U119C it is 2.09; for U15A C38U U102C it is 0.32. For the variant U9A C61A U96A U108C U115C C120U, the self-cleavage was 0.02. In the case of A92C U96C A107G, the self-cleavage was 0. The figure for G53U A78G A124G is 0.6; for A24G A50G U109C it is 0; for U12C A22U G27C it is 1.58. For G40U A107G A142G U143C, the self-cleavage was found to be 1.46.

Take G10A A24U A43U: the self-cleavage came out at 1.33. The result for A2G U102C U134G reads 0.66; that for U9G U47C G114A, 0.63; that for C3U U47A U130A, 1.24. Regarding A30G U134G A142G, the self-cleavage came to 1.03.

For the variant U13C C16A A64G, the self-cleavage is 0. For the variant U15C C38U U47A, the self-cleavage turned out to be 1.12. For the variant G10A A22G U100A, the self-cleavage was determined as 0.74.

In the case of U9C U15A U96C U119A A141G, the self-cleavage worked out at 0.4. On to U39A A65U U115G, for which the self-cleavage was 0.

For the variant U15C U91C U143C, the self-cleavage was 0.43.

Take U1C U14C G41A A67G A77G A140G: the self-cleavage was 0.31. As for U14C U73C A77G U102A U115A A142U U143C, the self-cleavage worked out at 1.02. On to U39A A69U U96A, for which the self-cleavage came out at 0.02.

In the case of U46C U109C G137A, the self-cleavage worked out at 1.84.

As to U12C U20C U23C A43G A78G C120U, the self-cleavage was 2.3.

Take U12C G54A G82A: the self-cleavage was 1.11. G53A A59U A117G: the self-cleavage was 0.8. For the variant U81C U134A A141G, the self-cleavage is 2.13.

As to U26C A64G U73A U112C A138G, the self-cleavage was 0.42. The figure for U46C U96C U109A is 0.11; for A67U G83A U132C it is 0.04. In the case of U47A A94G G106A, the self-cleavage is 0.38. The figure for U5C C38U A50G is 0.5. On to A94U U104C A117G, for which the self-cleavage was found to be 0. The figure for U20C U23C A30U G33U C131U is 2.07; for U46A A78G U143C it is 1.05; for A31U A69G U81A it is 0.6. U5C A22U A43G U62C A136G: the self-cleavage was 0. On to A77U U81C U104C G106U, for which the self-cleavage came to 1.38. The result for U52A G55U C95U reads 0.03. On to G35A U39C A117U U119C, for which the self-cleavage came out at 1.08.

Consider U52A A77G U119C, for which the self-cleavage was found to be 2.42.

As to U9C U15C G82A U91A U104A, the self-cleavage was found to be 0.9. U14A U108C C133U: the self-cleavage came to 0.87. As to U14C C17A U26A, the self-cleavage stood at 1.01. For the variant G8A A59G U130C, the self-cleavage is 0.18. The result for U1C A65G U100C U119C reads 0. For U14C G32U A67G, the self-cleavage amounted to 0.55. For A78G U119A A121U, the self-cleavage was determined as 0.81. Consider A2G U47A A57G, for which the self-cleavage was 1.02. The result for A2G U46G A94C reads 0.77; that for U9C U85C G97A A136G, 0.09. On to A67G A79G A138G, for which the self-cleavage amounted to 0.86. For A79G C118A U130C, the self-cleavage stood at 1.08. For the variant U12C A79G U87C, the self-cleavage was 0.69. For G54A U81C U108A U119C A124U, the self-cleavage was found to be 0.32.

With A79G U109C C111U, the self-cleavage stood at 0.71. In the case of U96C A117U A138G, the self-cleavage was determined as 0.2. As for G7A U9G A107U, the self-cleavage came to 0.88. Consider A57C U62A G86A A136G, for which the self-cleavage is 0.18. With C3U U62A U100C U112A, the self-cleavage amounted to 0.03. In the case of U15A C76G A77G, the self-cleavage was 2.07.

As to U1C U15C G127A U132C, the self-cleavage was 0.69. In the case of U5A G35A A64U A121G, the self-cleavage turned out to be 0.12. The result for U1G U13C A59G A65G A79U G126C reads 0.66; that for U5C U14C U23A, 0.83; that for A24G U81C A142G, 0.81. Consider A78G U132C A142G, for which the self-cleavage was found to be 1.73. Regarding U12A G40A A69U G114A U130C, the self-cleavage came to 0.06. The result for A31U U119G G122U reads 0.85; that for U14C U100C U119A, 1.4.

In the case of C19U U104C U130C, the self-cleavage was 0.96. As for G41A U46C A57G, the self-cleavage came to 0.82.

In the case of G36C A42U U143C, the self-cleavage worked out at 1.43. Take U1A U46C A92G: the self-cleavage amounted to 0.31.

U13C U26C G58U: the self-cleavage turned out to be 0.1. For the variant U9A A65G U130C, the self-cleavage came to 0.22.

Consider U14A U52A A94G U130C U132C, for which the self-cleavage was determined as 0.39.
